Measurements: publication PMC10668032
The list shows a part of the results. At the low end of the ranking the order means little.

Biological target: SIX1 homeodomain (reference allele) (UniProt Q15475)
Assay: universal protein binding microarray
Conditions: Universal all-10-mer PBM (8x60K, AMADID 030236), 300 nM GST-tagged protein, Alexa Fluor 488 anti-GST; buffer, salt, pH and temperature not stated; high values mean tight binding; most listed sequences are background and not binding sites; double strand, one strand shown

Sequence | binding signal [E-score]
ACTCCAGA | -0.059
TACTAAGA | 0.103
ATAAAAAT | -0.0378
CACCTACA | 0.0152
GACGACAC | 0.164
ATTATCGA | 0.0731
GGTCGTCA | -0.147
GGGCACAA | -0.0768
CATCTGAA | 0.0746
TACTCAGA | 0.0519
TAGTCCAA | -0.232
AAAGTGCC | -0.246
ATAATAAT | 0.192
ACGACCGC | -0.289
AGGCGAGG | 0.0995
AATGACGT | -0.0872
AGACGCCC | 0.125
AACTCTCA | -0.271
CGCATTTA | -0.0481
TACAGGAA | 0.05
CGCAGAGA | 0.0859
GAGTACTC | -0.0238
AGGGCGAT | 0.284
ATTGACGG | -0.122
ATGGAACC | -0.121

Sequence | binding signal [E-score]
ACGAGTGG | 0.001
AAGCAAGT | -0.241
AATAATGG | -0.158
TCTGTCCA | -0.0148
ACTTTCGG | -0.174
GCGGCTAA | -0.0411
AGCGCGCA | -0.0529
GAGGTATA | 0.365
ACGTGGCA | -0.331
CGACAACG | -0.208
CGGTTAAG | -0.281
CTGCTATA | 0.194
CGACCTGA | -0.0669
AGTAAACG | -0.0653
CGTGGCGA | -0.0946
ACGCAATA | 0.152
ATCTGACC | 0.282
GCGCGTAA | -0.137
AGACCCTA | -0.0278
TAAGGCGA | -0.097
ACAGCAGG | 0.0406
AAGAGGAA | -0.215
AATTTTCT | -0.31
ATTATCTG | 0.138
ACATGTGA | -0.161

Sequence | binding signal [E-score]
GACTACGC | -0.243
GCGCGTAC | -0.0697
AACGCACG | -0.195
AATTCTAT | -0.17
AAGAATTG | -0.235
AGACTAAC | -0.254
AACACTGA | -0.0187
GTGTTGAA | 0.0888
GAAGTCGC | -0.241
AAGGACTT | -0.199
CGCACCCA | -0.0395
CGTCGATC | 0.157
CGTGGAAG | -0.0521
GGAAACCC | -0.0219
TGCGAAAA | -0.161
ATTCCTTA | -0.244
GAAAAACC | -0.12
CCTCAAGC | -0.104
ACTCCTGA | 0.09
ACGATATC | 0.454
CAAGTCTA | -0.168
AAGGCACA | -0.289
GATTTGTA | -0.125
GGTTGAAC | -0.1
CTCGGGTA | 0.08

Sequence | binding signal [E-score]
GTTCCTAA | -0.084
CTATTCGC | -0.0657
AGGATGTA | 0.072
CTGTTTGA | -0.0676
CAACTAGC | -0.0216
AAGGTAAC | -0.0708
CGGTTGGA | -0.0116
ATTGTACC | 0.0609
AAGTCAAG | -0.204
GCTAGAAA | 0.00582
CTGAGTCC | -0.252
GAACGTCC | -0.137
ACCCCTGA | 0.187
AGAACATG | -0.012
CCACCTAC | -0.125
AATCGAAG | -0.186
CCAGACCG | 0.0478
GCAAGCAA | -0.203
CCAAACGG | -0.124
ACCTGACA | 0.188
CCTAGTCC | -0.171
GACGTATA | 0.213
CTTGGGGC | 0.0853
GGAAATTA | -0.105
CTGAAGAC | -0.121

Sequence | binding signal [E-score]
ATCCTGTC | 0.228
AACTTATC | -0.00993
GCTTCTGA | 0.0246
AATTCGGT | -0.00995
AAATGGTT | -0.246
AGACGAAC | -0.12
GTACATGA | 0.00487
ATATATAA | 0.298
GCTCAGGA | -0.00184
ATCGATAG | 0.275
GAATTCCA | -0.0335
ACAAGCAT | -0.073
ATCCAACA | 0.293
AGGGTAAA | 0.0458
AAATAGTT | -0.365
ATAGCAGG | 0.292
AGTCGCGA | 0.0471
AGCACGGA | -0.0182
AATCCAAC | 0.155
CTGCCTAC | -0.0373
AAGCCGCG | -0.0524
CTAACGCA | 0.0757
CATGAGAG | -0.0182
GAACGCTA | -0.167
AGATTCGG | -0.0448

Sequence | binding signal [E-score]
ACCCCCCA | 0.131
ATTAGAAT | 0.0313
CACCACCC | 0.0562
ATTAAAGA | -0.0462
GTCTCGCA | -0.0313
AGGTTTGC | -0.129
GCCATCCC | 0.12
AATGCCCA | -0.00368
CCGATGCC | 0.0988
CTGGAAGA | -0.0242
CGGAGCTA | -0.0612
ATTACGAG | 0.0743
AATTGCGA | -0.142
CTGTGCGC | -0.121
CTGAAGAA | -0.307
AATGTCTG | -0.112
CCCCCACA | -0.055
AACTTGAT | 0.275
CCCGAAAG | -0.103
AGCGACAA | -0.255
AGTTAAGA | -0.0724
AACAATCG | -0.0744
GGGCCTAC | -0.251
TCCGTTCA | -0.0554
GCCTCAGA | 0.105

Sequence | binding signal [E-score]
AAGCCACG | -0.102
CATGATCC | 0.394
TTAGTCAA | -0.169
AAACGTGT | -0.202
CCCACTGA | 0.191
GGGCTTAA | -0.157
AGGCTAAA | -0.228
ACCTTAAC | -0.0636
GGGGGCTA | -0.0415
AGGATGCA | 0.0134
AAATGAGA | 0.16
CTTAGAGC | -0.0596
AGTTACGG | -0.185
CATGTGTC | -0.0455
AAGAAGGA | -0.0489
ATATGAGG | 0.156
CAGGGACC | -0.154
CCGGCCTA | -0.0768
CAAACGTC | -0.165
AAACCCCA | 0.147
AATGTCGG | -0.0726
AAAAGACG | -0.181
GCTAGACA | -0.085
ATTCCACC | 0.164
CCCGCTCA | 0.00145

Sequence | binding signal [E-score]
ATCCCGTG | 0.217
CTGGCAGC | -0.293
AACCTTTC | -0.155
TTCTAGAA | -0.0938
GTTACTGA | 0.0553
CTAACAGA | -0.0108
GAGCGTAC | -0.129
CAATAATC | 0.0942
AGTTATAG | -0.0982
GCCTGCGC | -0.174
AGCCGTTG | -0.141
GGTTATGA | 0.132
ACGCCTTC | -0.154
CCCCGGGC | -0.0863
ATTGAGAA | 0.0916
ATTCGGAC | -0.0388
CCTCTTGA | 0.00803
CATCCGCA | 0.0493
GACATAAC | -0.242
AATGGCTC | 0.0159
ATAACCAC | 0.191
CCTGGTCC | -0.0157
AACCCCGT | 0.121
TAAACTCA | -0.0938
ATAACTAT | 0.0285

Sequence | binding signal [E-score]
CACTTTGA | -0.0844
CCCGCCGG | 0.178
GAGCTTGA | -0.0587
ATTTTTCC | -0.0759
ACACTCAA | -0.0785
CAACGCCA | -0.0862
AAGCTCCC | -0.185
CCCTCCAA | -0.045
AACGGGCA | 0.0321
GCACTTAC | -0.232
CAGGTCTC | -0.044
AGATGGCC | -0.124
AGTTTAGC | -0.194
TATAAACA | 0.134
ACCGACCG | -0.0081
ATGAATAA | 0.00218
CCAATACC | 0.324
CTGATAGA | 0.000815
AAAGTACA | -0.112
AGCGCTCA | -0.168
ATGCAACA | -0.127
CTCGAGTC | -0.225
ACCAATCA | -0.0895
AGACCCGC | 0.0366
ATATTTGC | 0.0788

Sequence | binding signal [E-score]
ACCTACAC | 0.00607
AACTACCT | -0.223
CTCCATGC | -0.0693
AGGCCTTC | -0.39
GCGTCAAA | -0.0847
CTCTAAAC | -0.198
CAGCTGGG | 0.0839
AAGGAACC | -0.0496
AAGACGAA | -0.152
AATGTCAT | -0.255
GATTCGAA | -0.0371
ATCCATTC | 0.287
ATGATCTA | 0.346
CGTGAACA | -0.0745
GCATCCGC | 0.14
CCCGAAGG | 0.0834
AACCGCGG | 0.058
GACTGTTA | -0.18
AGTGTACA | -0.118
GAGGCAAA | -0.122
AGCCGCAG | -0.133
AAATGCCA | -0.213
CCTACCGA | 0.0487
CCCCCGAA | 0.11
CCGGTCCA | -0.191

Sequence | binding signal [E-score]
AGACAAGG | -0.0177
ACGACGAC | -0.364
GCGGCTAC | 0.0202
TCAACTAA | 0.0551
ATTATTGC | -0.00181
ACGTAGTC | -0.202
GGGACGGA | 0.00348
ATAGTATG | 0.258
CCGTGAAG | -0.244
GAAGAGAC | 0.0397
ACGCGTCA | -0.0604
GTCTTGGA | -0.131
GCCTTACC | -0.162
CACTATTA | 0.0807
AACGTTGA | -0.317
ACCCACCA | -0.0266
ACACCCTA | 0.31
GAAAACGC | -0.374
AGAAATAT | -0.00364
ATGCACTA | 0.159
GTATAGAC | 0.276
CAGAAGTA | -0.0554
CCGATAAA | 0.0259
GTAATGTA | -0.255
CCACCTTC | 0.127

Sequence | binding signal [E-score]
AACAGTAA | -0.178
GAAGGCTA | -0.0602
CTTAGTCA | -0.314
AGCTTCGC | -0.231
CTGCCACA | -0.259
AAACCGAT | 0.184
GTTAAGTA | -0.0281
TGTGAAAA | -0.238
CGCATACA | 0.0807
AATTATAT | 0.167
ATTGCCGC | -0.245
ATACTGAT | 0.349
AAATGACC | -0.236
AGCGATGC | -0.0345
GCATTAAC | -0.0109
CGCCTCGC | -0.104
ACAAGTCG | -0.0906
AAGTACCT | -0.0949
ATTACGCG | 0.111
ATTGGCTA | 0.122
GGGCCACC | -0.21
AGAATCGC | -0.034
GACGTTTA | -0.157
ACTCGAAT | -0.237
GTCTACTA | -0.041

Sequence | binding signal [E-score]
AACAGTTC | -0.194
ACCTTACT | -0.00958
ACGACCCA | -0.0702
GGATCAAC | 0.39
CCGAAAGA | -0.15
CTGTCTAA | 0.0106
AGTTAGCA | -0.235
GAACAATC | -0.00307
TAAGCATA | 0.0115
AGGCGGCA | -0.174
ACGGATCG | 0.354
ATGTATCG | 0.38
AATGAGTA | 0.0975
GCAGTCTA | -0.196
ATCCTTCC | 0.255
TCCCTCAA | 0.0328
GTGAGGAA | -0.132
GGTGGTTA | -0.0976
CACACTCG | 0.175
TATAATGA | 0.112
AGGAACCA | -0.122
CATCTGCC | 0.0408
AGCGAGTC | -0.278
ACGCATGG | 0.206
CAGTTGGA | -0.0924

Sequence | binding signal [E-score]
GCCCTAGA | -0.229
AGTCATAG | -0.0693
ATCGTGTA | 0.272
CATCTCAC | 0.244
GAGCTTGC | -0.114
AATAACTA | -0.173
CTTAGTAC | -0.0566
AGTTTCTA | -0.337
GGGACTAC | -0.134
ACATAAGA | 0.0712
AGCACCTC | -0.181
ATGTTAGG | -0.109
AGCGGTAA | -0.214
GACCAAAA | -0.248
AACACAAG | -0.273
AATCTCCT | -0.00675
GAGGGAGA | 0.0615
CGTAATAG | -0.0392
AGGAGTAC | -0.0811
